Source: PubChem BioAssay AID662 (National Center for Advancing Translational Sciences (NCATS), 2007)
“And” between values parts separate entries of the source, which are not always exact repeats. Equal values may be shown once. Among all 71,000 compounds or so, about 1,800 (2.5%) were called active. This list was built around the results that the source calls inconclusive (neither active nor inactive); the mix of calls is not that of the screen. The call rests on the fitted dose curve; in most records, active means well fitted activation curve with a large enough effect in the signal ratio, with a control signal flat (not every such curve was filed as active); inconclusive means small, poorly fitted or top-dose-only effect, or effect the other way, or a change in a side signal; inactive means flat fitted curve, though single readings scatter; the % refers to the signal ratio. Potencies of inconclusive entries are doubtful fits and often do not repeat.

assay: Cell signaling CRE-BLA (Fsk stim); conditions: CHO CRE-bla reporter (cAMP response element driving beta-lactamase), forskolin EC10, beta-lactamase ratio; activity change, negative = inhibition: at 38.2 µM (top of the series) unless noted; on activity change, negative = inhibition: % of control where 0% means no effect
Procedure, shortened: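 CRE-bla CHO cells stimulated with EC10 NKH 477 (water-soluble forskolin) and compound titrations, 3 h at 37C; beta-lactamase read with CCF4 after 2 h at room temperature. Activity from 460/530 nm emission ratio, AC50 values for positive or negative modulation.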
Potency means the concentration at half of the fitted maximal effect; tags describe the fitted curve by direction and shape.

| Compound | activity change, negative = inhibition | Potency |
| --- | --- | --- |
| COc1cccc(-c2cncnc2NCc2ccc(OC)cc2OC)c1 | inconclusive: 27.4% |  |
| CNCCCC1c2ccccc2C=Cc2ccccc21 | inactive |  |
| COC(=O)c1ccccc1NC(=O)c1ccccc1OC |  | inconclusive: 12.6 µM [rising, single point] |
| C=C(C)c1cccc(C(C)(C)NC(=O)Nc2ncccn2)c1 | inconclusive: -5.84% |  |
| O=C(O)C1CC(=O)N(CCOc2ccccc2)C1 (centres undefined) | inactive: -2.77% |  |
| CCOC(=O)C1CCN(c2ncnc3c2cnn3-c2ccccc2)CC1 |  | inconclusive: 15.8 µM [rising, single point] |
| Cc1cccc(NC(=O)CN(C)S(=O)(=O)c2cnc[nH]2)c1 | inconclusive: 10.5% |  |
| COc1cccc2[nH]c3c(=O)n(CCN(C)C)cnc3c12 | inconclusive: -0.482% |  |
| Cc1ccccc1Nc1nc(N)nc(CSc2nc3ccccc3c(=O)n2CCCO)n1 |  | active: 6.31 µM |
| Cc1ccc(Br)cc1S(=O)(=O)N1CCN(c2ccccc2)CC1 | inconclusive: 3.88% [cytotoxic] |  |
| COc1ccc(C(C)=O)cc1COC(=O)c1c(C)noc1C |  | inconclusive: 12.6 µM [rising, single point] |
| COc1ccc(-c2nc3n(n2)C(c2ccccc2Cl)C(C(N)=O)=C(C)N3)cc1 (centres undefined) | inactive: 1.01% |  |
| CCOc1ccccc1OCCn1nnc2ccccc21 | inconclusive: 25.5% |  |
| O=C(c1ccc2nc(N3CCCCC3)sc2c1)N1CCN(c2ccccn2)CC1 | inconclusive: 29.6% |  |
| Cc1cccc(CN(C)CCc2ccccn2)c1 | inconclusive: -13.2% [at 7.6 µM] |  |
| O=C(CCn1c(=O)[nH]c2ccsc2c1=O)N1CCN(c2cccc(Cl)c2)CC1 | inconclusive: -18.8% |  |
| COCCCNC(=O)c1ccc(CNS(=O)(=O)c2ccc(NC(C)=O)cc2)cc1 | inconclusive: 13.9% |  |
| CCOc1ccc(C(C)=O)cc1N1C(=O)C2C3C=CC(O3)C2C1=O (centres undefined) | inconclusive: -15.5% |  |
| O=c1cnc2cnc(Oc3ccccc3)nc2n1CCc1ccccc1 | inconclusive: 23.4% |  |
| CC(=O)N1CCc2cc(S(=O)(=O)NC(C(=O)NC3CCCc4ccccc43)C(C)C)ccc21 (centres undefined) | inconclusive: -36.7% |  |
| CCN(CC)S(=O)(=O)c1ccc(NC2c3ccccc3C(=O)N2Cc2ccc3c(c2)OCO3)cc1 (centres undefined) | inactive: 14.4% |  |

| Compound | activity change, negative = inhibition | Potency |
| --- | --- | --- |
| CC(C(=O)NC1CCCC1)N(Cc1ccco1)C(=O)c1snc(C(=O)NC2CCCC2)c1N (centres undefined) | inactive: 0.129% |  |
| COc1ccc(N2CCN(C(c3cccs3)C(C)NS(=O)(=O)c3ccccc3)CC2)cc1 (centres undefined) | inactive: -7.9% |  |
| Cn1ccnc1SCC(=O)NC12CC3CC(CC(C3)C1)C2 |  | inconclusive: 0.316 µM [rising, full curve] |
| CCOC(=O)c1ccc(Oc2nc(NC(C)(C)C)nc(N(C)C)n2)cc1 | inactive: -9.51% |  |
| Cc1cc(C)n2c(SCC(=O)Nc3ccccc3)nnc2n1 |  | inconclusive: 10 µM [rising, single point] |
| COC(=O)CSc1nc2ccccc2o1 | inconclusive: -7.46% |  |
| Cc1cc(C)c(OCC(=O)Nc2ccc3c(c2)OCO3)cc1C | inconclusive: 2.57% |  |
| Cc1cc(C)n(-c2ccc(C(=O)Nc3nc4ccccc4s3)cc2)n1 | inconclusive: -12.5% |  |
| CCOC(=O)COc1ccc2c(c1)c(C(=O)OCC)c(C)n2CC | inconclusive: 19.1% |  |
| CCOC(=O)c1sc2nc(N3CCCC3)c3c(c2c1N)CC(C)(C)OC3 |  | inconclusive: 3.16 µM [rising, partial curve] |
| Cc1cc(N2C(=O)C3CC=CCC3C2=O)cc(C)c1Br (centres undefined) |  | inconclusive: 12.6 µM [rising, single point] |
| CC(C)c1cc(C(=O)Nc2ccc3c(c2)OCO3)no1 | inactive: -3.44% |  |
| CC(=O)Nc1ccc2nc(-c3ccccn3)[nH]c2c1 | inactive: 13.2% |  |
| O=C(/C=C\Nc1cccc(F)c1)c1ccc2c(c1)OCO2 |  | inconclusive: 1.58 µM [rising, partial curve, poor fit] |
| Cc1oc(-c2ccc(Cl)cc2)nc1CN1CCC(C(=O)NCc2cccnc2)CC1 | inconclusive: -5.85% |  |
| Cc1cc(NCCN2CCOCC2)n2c(nc3ccccc32)c1C#N | inconclusive: 22.3% |  |
| Cc1cc(C(=O)OCC(=O)Nc2cc(C(F)(F)F)ccc2N2CCOCC2)c(C)o1 |  | inconclusive: 10 µM [rising, partial curve] |
| COc1ccc(-c2nnc(SCC(=O)Nc3sc4c(c3C#N)CCC4)n2CC2CCCO2)cc1 (centres undefined) |  | inconclusive: 25.1 µM [rising, single point] |
| COc1cccc(NC(=O)CSc2nc3n[nH]c(C)c3c(=N)n2-c2cccc(OC)c2)c1 |  | active: 2.51 µM |
| COC(=O)c1cc(COc2ccc3c4c(c(=O)oc3c2)CCCC4)c(C)o1 |  | inconclusive: 5.01 µM [rising, single point] |
| CC(=O)N1CCC2(CCN(Cc3ccc(C#N)cc3)CC2)CC1 | inactive: 5.19% |  |

| Compound | activity change, negative = inhibition | Potency |
| --- | --- | --- |
| CCCCCOC(=O)C1[C@H]2C(=O)N(Cc3cccs3)C[C@]23C=C[C@H]1O3 (some centres undefined) | inactive: -12.1% |  |
| CC1=C(CC(=O)O)c2cc(F)ccc2/C1=C\c1ccc(S(C)=O)cc1 (centres undefined) | inconclusive: -8.28% [at 17.1 µM] |  |
| O=C(Nc1ccccc1)N1CCCC2(CCN(C(=O)c3cccc(F)c3)CC2)C1 | inactive: -10% |  |
| O=c1cnc2cnc(N3CCOCC3)nc2n1C1CC1 |  | inconclusive: 5.01 µM [rising, partial curve, poor fit] |
| CC1=[N+]([O-])C(N2CCOCC2)C(O)(c2ccccc2)C1 (centres undefined) | inactive: 0.24% |  |
| Cc1ccc(-n2c(=O)[nH]cc(C(=O)Nc3ccc4c(c3)OCCO4)c2=O)cc1 | inconclusive: 19.8% |  |
| COc1ccc(CCNS(=O)(=O)c2ccc3c(c2)CCN3C(=O)C2CC2)cc1OC |  | inconclusive: 12.6 µM [rising, partial curve] |
| COc1cc(NCCC(=O)O)c2ncccc2c1 | inactive: -0.803% [at 7.6 µM] |  |
| O=C(O)c1ccc(N2CCCCCC2)c(N2C(=O)c3ccccc3C2=O)c1 | inconclusive: -0.788% [at 7.6 µM] |  |
| Cc1cccc(N2CCN(C(=O)COc3cc(=O)n(C)c4ccccc34)CC2)c1C |  | inconclusive: 10 µM [rising, single point] |
| N#CCCn1c(=O)c(-c2ccccc2)nc2cnc(OCc3ccccc3)nc21 | inconclusive: 55.5% |  |
| c1ccc(-n2cnnc2SCc2cn3ccsc3n2)cc1 | inconclusive: 5.45% |  |
| CCN1C(=O)C2(Nc3ccccc3-c3nc4ccccc4n32)c2cc(OC)ccc21 (centres undefined) |  | inconclusive: 10 µM [rising, partial curve, poor fit] |
| Oc1ccccc1NCC(O)Cn1ccc2ccccc21 (centres undefined) | inconclusive: -21.2% |  |
| CN(C)c1nc(N)nc(Nc2ccccc2C#N)n1 | inactive: 13.1% |  |
| C=CCn1c(SCC(=O)c2ccc(CNC(C)=O)o2)nc2scc(C3CC3)c2c1=O |  | active: 7.94 µM |
| CN(C)c1ccc(NC(=O)Cn2cc3c(n2)CCCC3)cc1 | inactive: 2.45% |  |
| OCCNc1nc2ccccc2n1-c1ccccc1 | inconclusive: 21.2% |  |
| CCOC(=O)c1ccccc1NC(=O)c1ccc(NS(C)(=O)=O)cc1 |  | active: 12.6 µM |
| CCC(Sc1nnnn1-c1ccccc1)C(=O)Nc1nc2ccccc2s1 (centres undefined) | inconclusive: -8.02% |  |
| CCn1c(SCC(=O)OC2CCCCC2)nc2ccccc2c1=O | inactive: 0.916% |  |

| Compound | activity change, negative = inhibition | Potency |
| --- | --- | --- |
| Cc1nc2cncnc2n(Cc2ccc(F)cc2)c1=O | inconclusive: 6.99% |  |
| COC(=O)c1ccc(C(=O)OC)c(N)c1 |  | inconclusive: 10 µM [rising, partial curve] |
| O=c1c2ccccc2nc2n1CCC2 | inactive: -13.2% |  |
| c1ccc(-c2cc3c(nn2)CCc2nonc2-3)cc1 | inactive: -1.18% |  |
| NCCC[C@@H](CC(=O)N[C@@H]1CCNC[C@H]1C(=O)N[C@H](CC(=O)N[C@@H](CCC(=O)O)CC(=O)O)Cc1c[nH]c2ccccc12)NC(=O)C[C@H](CO)NC(=O)[C@@H]1CNCC[C@H]1N | inactive: -11.4% |  |
| COCCCNC(=O)Cn1cc(C(C)=O)c2ccccc21 | inconclusive: 4.63% |  |
| Cc1sc(NC(=O)c2cccs2)c(C(N)=O)c1C |  | inconclusive: 25.1 µM [rising, single point] |
| CC(=O)C1=C(C)NC(SCC(=O)c2ccccc2)=C(C#N)C1CC(C)C (centres undefined) | inactive: 10% |  |
| CCOC(=O)c1c(C)n(CC(O)c2ccccc2)c2ccc(O)cc12 (centres undefined) | inactive: 18% |  |
| COc1cccc(Nc2ncc3nc(-c4cccs4)c(=O)n(CCC#N)c3n2)c1 | inconclusive: 18.9% |  |
| Brc1ccc(-c2cn3cccnc3n2)cc1 | inactive: -2.07% |  |
| C=CCN1C(=O)/C(=C2\SC(N3CCOCC3)=NC2=O)c2cc(Br)ccc21 |  | inconclusive: 1.26 µM [rising, partial curve] |
| COc1ccc(S(=O)(=O)NC2(C(F)(F)F)N=C3SCCN3C2=O)cc1 (centres undefined) | inconclusive: 15.6% |  |
| O=C(Nc1ccccc1)c1cc([N+](=O)[O-])ccc1Cl | inconclusive: -20.3% and inconclusive: 7.45% |  |
| CCOC(=O)N1CCN(S(=O)(=O)c2ccc3c(c2)CCN3C(=O)C2CCC2)CC1 |  | inconclusive: 2.51 µM [rising, partial curve] |
| CN1CCCC2(CCN(C(=O)c3cc(C(F)(F)F)cc(C(F)(F)F)c3)CC2)C1 | inactive: -11.2% |  |
| CCC[C@@H]1C[C@@]1(CCC)C(NC(=O)c1ccccc1)c1cccc(Cl)c1 (some centres undefined) | inactive: 8.61% |  |
| O=C(O)[C@H](Cc1c[nH]c2ccccc12)N1C(=O)c2ccccc2C1=O | inactive: 9.66% [at 7.6 µM] |  |
| CCOc1ccccc1NC(=O)CSc1nccn1-c1ccccc1 | inactive: 10.3% |  |
| Cc1sc2nc(SCC(=O)N3CCCCC3)[nH]c(=O)c2c1C |  | inconclusive: 12.6 µM [rising, single point] |
| CN=C(NC#N)Nc1ccc(C2=NNC(=O)C[C@@H]2C)cc1 | inactive |  |
